From article PMC4336329 (PLoS ONE, 2015)
Out of some 310,000 compounds screened, about 2,200 (0.71%) showed an effect of 50% or more. Effects have a minus sign here. The list shows a part of the results.

The compounds below were run against human ether-à-go-go-related gene (hERG) potassium channel (human, UniProt Q12809) (assay: primary screen, population patch clamp on CHO cells stably expressing hERG).
human ether-à-go-go-related gene (hERG) potassium channel, sequence (Q12809 whole entry, looked up): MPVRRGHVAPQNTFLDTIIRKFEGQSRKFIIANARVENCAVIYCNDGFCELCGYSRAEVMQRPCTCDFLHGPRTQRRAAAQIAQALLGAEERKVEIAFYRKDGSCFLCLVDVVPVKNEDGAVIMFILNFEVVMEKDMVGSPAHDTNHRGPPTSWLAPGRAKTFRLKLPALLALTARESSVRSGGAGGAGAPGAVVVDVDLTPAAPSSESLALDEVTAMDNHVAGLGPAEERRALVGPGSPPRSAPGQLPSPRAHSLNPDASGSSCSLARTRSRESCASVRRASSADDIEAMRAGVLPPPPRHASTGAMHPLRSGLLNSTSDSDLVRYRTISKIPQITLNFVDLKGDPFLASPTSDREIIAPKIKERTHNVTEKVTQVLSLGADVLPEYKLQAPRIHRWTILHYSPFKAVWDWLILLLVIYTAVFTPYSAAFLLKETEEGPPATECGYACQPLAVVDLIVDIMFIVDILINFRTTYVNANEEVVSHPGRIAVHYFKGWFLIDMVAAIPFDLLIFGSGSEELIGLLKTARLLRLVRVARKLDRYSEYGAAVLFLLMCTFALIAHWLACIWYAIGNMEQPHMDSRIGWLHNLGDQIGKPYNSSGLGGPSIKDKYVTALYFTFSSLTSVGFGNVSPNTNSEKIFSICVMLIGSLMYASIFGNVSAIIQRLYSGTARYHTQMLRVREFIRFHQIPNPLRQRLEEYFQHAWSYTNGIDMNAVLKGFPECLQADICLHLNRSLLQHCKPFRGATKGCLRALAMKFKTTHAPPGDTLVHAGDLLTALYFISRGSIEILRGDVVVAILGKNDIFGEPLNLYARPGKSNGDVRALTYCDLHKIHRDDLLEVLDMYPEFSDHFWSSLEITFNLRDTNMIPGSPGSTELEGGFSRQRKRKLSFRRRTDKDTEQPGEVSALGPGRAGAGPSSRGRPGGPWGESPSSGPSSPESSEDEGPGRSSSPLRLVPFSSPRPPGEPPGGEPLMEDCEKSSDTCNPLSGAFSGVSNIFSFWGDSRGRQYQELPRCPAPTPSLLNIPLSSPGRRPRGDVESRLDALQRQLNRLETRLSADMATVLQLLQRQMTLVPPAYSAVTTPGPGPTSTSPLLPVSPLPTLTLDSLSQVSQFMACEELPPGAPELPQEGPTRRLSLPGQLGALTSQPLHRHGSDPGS

First: Cc1ccccc1-n1nc2c(c1NC(=O)CC(C)C)CS(=O)C2 (stereo not shown)
Second: COC(=O)C1(O)CC(CC(C)C)=NN1C(=O)c1ccccc1 (stereo not shown)
The “hERG current change (%, negative = inhibition) at 1uM” value of the first is higher: 6.92% for the first, 1.04% for the second.

Going from `COc1ccc(-n2c(SCC(=O)NCC3CCCO3)nc3c(c2=O)SCC3)cc1OC` (stereo not shown) to `CCN(CC)S(=O)(=O)c1ccc2c(c1)nc(SCC(=O)NCC1CCCO1)n2CC` (stereo not shown), the “hERG current change (%, negative = inhibition) at 1uM” value rises from 13.5% to 18.2%.

First: C=C(C)CSc1nnc2n(N)c(=O)c3ccccc3n12
Second: Cn1c(SCc2ccccc2)nnc1-c1ccc(O)cc1
The “hERG current change (%, negative = inhibition) at 1uM” value of the first is higher: 14% for the first, 13.2% for the second.

Compared with `COc1ccc(/C=C/c2c(-c3ccc(OC)cc3)oc3ccc(-c4ccc(OC)cc4)cc23)cc1`, `COc1ccc2nc(C)cc(N/N=C/c3cccc(OC)c3O)c2c1` is higher in “hERG current change (%, negative = inhibition) at 1uM” value: -1.57% for the first, 7.59% for the second.

Compared with `O=C(NCc1cccs1)c1ccc2c(c1)ncn2C1CCCC1`, `O=C(NCc1cccs1)c1cccnc1C(=O)O` is higher in “hERG current change (%, negative = inhibition) at 1uM” value: -5.32% for the first, 9.5% for the second.

Going from `O=S(=O)(NCCc1ccccc1)c1ccc(Br)cc1` to `CSCCC(N=C(NS(=O)(=O)c1ccc(C)cc1)c1ccccc1)C(=O)O` (stereo not shown), the “hERG current change (%, negative = inhibition) at 1uM” value rises from 1.72% to 13.1%.

Going from `CCn1cc(-c2ccnc3cc(C(=O)O)nn23)c(C)n1` to `COC(=O)c1ccc(CSc2nnc(-c3ccccc3)n2C)o1`, the “hERG current change (%, negative = inhibition) at 1uM” value falls from 8.83% to 6.44%.

Going from `COc1ccc(N(C(=O)c2snc(C(N)=O)c2N)C(C(=O)NC2CCCC2)c2cccs2)cc1OC` (stereo not shown) to `CCC(C(=O)NC1CCCC1)N(Cc1ccc2c(c1)OCO2)C(=O)c1snc(C(N)=O)c1N` (stereo not shown), the “hERG current change (%, negative = inhibition) at 1uM” value falls from 6.13% to 1.7%.

Going from `C=CCNC(=O)N1CCC(n2nccc2NC(=O)CCCc2ccccc2)CC1` to `Cn1cc(SCC(=O)NCCc2ccccc2)c2ccccc21`, the “hERG current change (%, negative = inhibition) at 1uM” value falls from -3.3% to -6.9%.

First: CC(=NCCCn1ccnc1)c1c(C)[nH]n(-c2ccc([N+](=O)[O-])cc2)c1=O
Second: Cc1csc(=O)n1CCC(=O)OCc1nnc(-c2ccc([N+](=O)[O-])cc2)o1
The “hERG current change (%, negative = inhibition) at 1uM” value of the first is higher: -17.8% for the first, -23.6% for the second.

Going from `O=C(Cc1ccc2c(c1)OCCO2)N/N=C/c1ccco1` to `O=C1c2ccccc2C(Nc2ccccc2)N1Cc1ccc2c(c1)OCO2` (stereo not shown), the “hERG current change (%, negative = inhibition) at 1uM” value rises from -6.65% to 7.92%.

Going from `CCCCNC(=O)CN1C(=O)NC2(CCOc3ccccc32)C1=O` (stereo not shown) to `Cc1cc(C(=O)CN2C(=O)NC3(CCCc4ccccc43)C2=O)c(C)n1Cc1ccccc1` (stereo not shown), the “hERG current change (%, negative = inhibition) at 1uM” value rises from 4.81% to 9.31%.

First: COC(=O)C1=C(c2ccccc2OCc2ccccc2)C[C@@H]2CC[C@H]1N2C(=O)NCc1cccc(F)c1
Second: COC(=O)C1=C(C(=O)c2ccccc2)C(c2ccccc2)n2nnnc2N1 (stereo not shown)
The “hERG current change (%, negative = inhibition) at 1uM” value of the first is lower: 9.78% for the first, 14.3% for the second.

Going from `Cc1cc(C)c(NC(=O)CN2CCN(C)CC2)c(C)c1` to `COc1ccc(CC(=O)N2CCN(C)CC2)cc1`, the “hERG current change (%, negative = inhibition) at 1uM” value falls from 7% to -2.13%.

First: O=C(CCS(=O)(=O)c1cccc2nsnc12)NCc1ccccc1Cl
Second: O=C(Cn1nnc2ccccc21)NCc1ccccc1
The “hERG current change (%, negative = inhibition) at 1uM” value of the first is higher: 23.3% for the first, 10.1% for the second.

Compared with `COCCCN(CC(=O)Nc1ccc(N2CCOCC2)cc1)S(=O)(=O)c1ccc(C)cc1`, `COCCCN1C(=O)C(=O)/C(=C(/O)c2ccc(S(=O)(=O)N3CCOCC3)cc2)C1c1ccc(OC)cc1` (stereo not shown) is lower in “hERG current change (%, negative = inhibition) at 1uM” value: 17.4% for the first, 14.1% for the second.

Going from `COC(=O)c1sc(NC(=O)C(C)c2ccccc2)nc1C` (stereo not shown) to `COc1ccc2c(-c3ccccc3)cc(SC(C)C(N)=O)nc2c1` (stereo not shown), the “hERG current change (%, negative = inhibition) at 1uM” value rises from 6.89% to 12%.

First: O=C(Nc1ccc(Br)cc1)C1CC(O)CN1C(=O)Oc1ccccc1 (stereo not shown)
Second: O=C(COc1ccccc1[N+](=O)[O-])Nc1ccc(NC(=O)c2cc3ccccc3o2)cc1
The “hERG current change (%, negative = inhibition) at 1uM” value of the first is higher: 13.4% for the first, 5.41% for the second.

First: COC1CCCCC1NS(=O)(=O)c1ccccc1 (stereo not shown)
Second: Cc1ccc(NS(=O)(=O)c2ccc(C3CCCCC3)cc2)cc1
The “hERG current change (%, negative = inhibition) at 1uM” value of the first is higher: 12.8% for the first, 1.23% for the second.

Compared with `CC(=O)COc1ccc2c(C)c(-c3ccccc3)c(=O)oc2c1`, `COc1ccc(CCNC(=O)c2coc3ccccc3c2=O)cc1` is higher in “hERG current change (%, negative = inhibition) at 1uM” value: 0.992% for the first, 19.4% for the second.

Going from `O=C(NCCCN1CCCC1)c1ccc(CS(=O)(=O)c2c(Cl)cccc2Cl)o1` to `O=C(CSc1nnc(Nc2ccccc2F)s1)Nc1cccc(S(=O)(=O)N2CCCCC2)c1`, the “hERG current change (%, negative = inhibition) at 1uM” value falls from 15.6% to -0.278%.

First: CC(CN(C(N)=O)c1ccccc1O)C(=O)O (stereo not shown)
Second: CCN(Cc1cc2ccccc2[nH]c1=O)C(=O)C(C)C
The “hERG current change (%, negative = inhibition) at 1uM” value of the first is lower: -1.95% for the first, 6.86% for the second.

Going from `CCCc1cc(=O)n2[nH]c(Cc3ccccc3)nc2n1` to `COn1c(SCc2cccc(Cl)c2)nc2ccccc2c1=O`, the “hERG current change (%, negative = inhibition) at 1uM” value falls from 14% to 3.64%.

Compared with `CC1(C)NC(=O)N(CC(O)CN(c2ccccc2)S(=O)(=O)c2ccccc2[N+](=O)[O-])C1=O` (stereo not shown), `CCN(c1ccccc1)S(=O)(=O)c1cc(NC(=O)CSc2n[nH]c(=O)[nH]c2=O)ccc1Cl` is higher in “hERG current change (%, negative = inhibition) at 1uM” value: 9.96% for the first, 16.3% for the second.

Compared with `Cc1ccc(CSCC(=O)NCc2cccnc2)cc1`, `COc1ccc(CN2C(=O)CSC2c2ccccn2)cc1` (stereo not shown) is lower in “hERG current change (%, negative = inhibition) at 1uM” value: 12.8% for the first, 7.6% for the second.

Going from `CCOC(=O)C1=C(C)NC(SC)=C(C#N)C1CC(C)C` (stereo not shown) to `CCN(CC)C(=O)c1nn(-c2ccccc2)c2c1C1CCC2(C)C1(C)C` (stereo not shown), the “hERG current change (%, negative = inhibition) at 1uM” value rises from 2.73% to 12.2%.

Compared with `CCCCC(=O)N=c1sc2cc(S(C)(=O)=O)ccc2n1C`, `CN(CC(=O)O)S(=O)(=O)c1ccc2c(c1)NC(=O)CC(=O)N2` is higher in “hERG current change (%, negative = inhibition) at 1uM” value: 3.1% for the first, 13.9% for the second.

Going from `CC1SC(c2ccccc2)N(CC(O)c2ccc([N+](=O)[O-])cc2)C1=O` (stereo not shown) to `CCC1(c2ccccc2)NC(=S)N(c2ccc(C)cc2)N1` (stereo not shown), the “hERG current change (%, negative = inhibition) at 1uM” value rises from -40.7% to 11.1%.

Going from `CCCCOC1(c2ccccc2)NC(=S)NN=C1c1ccccc1` (stereo not shown) to `O=C(Cn1ncc2c1-c1ccccc1OC2)Nc1nc2ccccc2s1`, the “hERG current change (%, negative = inhibition) at 1uM” value falls from 17.8% to 9.68%.

First: CC(C)(CNC(=O)/C=C/c1ccc(F)cc1)CNC(=O)/C=C/c1ccc(F)cc1
Second: COc1ccc(/C=N/NC(=O)c2nc(Cl)c(Cl)c(N)c2Cl)cc1COc1ccc(F)cc1F
The “hERG current change (%, negative = inhibition) at 1uM” value of the first is lower: -6.58% for the first, 9.06% for the second.

First: Cc1ccc(-c2cc(C(F)F)n3ncc(C(=O)N4CCCc5ccccc54)c3n2)cc1
Second: Cc1cccc(C2c3[nH]c4ccccc4c3CCN2C(=O)c2cn(C)c3ccccc3c2=O)n1 (stereo not shown)
The “hERG current change (%, negative = inhibition) at 1uM” value of the first is lower: 3.74% for the first, 7.02% for the second.

Going from `CC(=O)Nc1sc2c(c1C(c1ccccn1)N1CCCC1)CCCC2` (stereo not shown) to `O=C(NCCc1ccc(Cl)cc1)C1CCC(=O)N(C2CCCCCC2)C1` (stereo not shown), the “hERG current change (%, negative = inhibition) at 1uM” value rises from 1.17% to 9.01%.

Going from `O=C(OCc1ccc([N+](=O)[O-])cc1)c1cc(S(=O)(=O)N2CCCCC2)ccc1N1CCOCC1` to `CN(c1ccc(C(=O)Nc2ccccc2C(=O)N2CCOCC2)cc1)S(C)(=O)=O`, the “hERG current change (%, negative = inhibition) at 1uM” value rises from -77.9% to 11.6%.

First: COc1cc(/C=N/N=C2/SCC(=O)N2c2ccc(O)cc2)ccc1O
Second: COc1nc2ccccc2c(=O)n1-c1ccc(Cl)cc1
The “hERG current change (%, negative = inhibition) at 1uM” value of the first is higher: 15.8% for the first, 13.3% for the second.

Compared with `CN(C)C(=O)Nc1ccc(F)cc1F`, `CCN1CCC(NC(=O)Nc2ccc(F)cc2F)CC1` is lower in “hERG current change (%, negative = inhibition) at 1uM” value: 8.44% for the first, -1.88% for the second.

Going from `CC1CC(C)CN(C(=O)c2ccc(C#N)cc2)C1` (stereo not shown) to `CC(C)C(NS(=O)(=O)c1ccc2c(c1)oc(=O)n2C)C(=O)N1CCN(Cc2ccccc2)CC1` (stereo not shown), the “hERG current change (%, negative = inhibition) at 1uM” value falls from 6.76% to 4.37%.

Compared with `CCN(CC)CCn1c2c(c(SCC(=O)Nc3cc(C)cc(C)c3)nc1=O)CCC2`, `CCC1CCc2sc(C(=O)N(C)CC(=O)Nc3ccc(OC)cc3)cc2C1` (stereo not shown) is higher in “hERG current change (%, negative = inhibition) at 1uM” value: -15.7% for the first, 5.22% for the second.

Going from `CCOC(=O)CC1COCCN1Cc1cn[nH]c1-c1ccc2c(c1)OCO2` (stereo not shown) to `CCOC(=O)N1CCN(CC(O)COC(CC)c2ccccc2)CC1.Cl` (stereo not shown), the “hERG current change (%, negative = inhibition) at 1uM” value falls from 17.3% to 5.71%.

Going from `Cc1nc2ccc(NC(=O)Cc3ccsc3)cc2s1` to `CCCCc1nc2ccccc2n1CC(=O)NN`, the “hERG current change (%, negative = inhibition) at 1uM” value rises from 9.65% to 15.8%.

Compared with `COc1ccc2c(C)nc(Nc3nc(C)c(C)c(=O)[nH]3)nc2c1`, `Cc1noc(C)c1C(=O)NCCc1c(C)[nH]c2ccccc12` is higher in “hERG current change (%, negative = inhibition) at 1uM” value: 8.91% for the first, 17% for the second.

Compared with `CC(OC(=O)CN1C(=O)C2C3C=CC(C4CC34)C2C1=O)C(=O)c1ccccc1` (stereo not shown), `CC(C)(C)NC(=O)CN(C(=O)CN1C(=O)C(=O)c2ccccc21)C(C)(C)C` is higher in “hERG current change (%, negative = inhibition) at 1uM” value: -0.865% for the first, 3.04% for the second.

First: Cc1cc(O)c(-c2cc(O)c(C)cc2O)cc1O
Second: COc1cc(C(F)(F)F)c(C(=O)N(C)Cc2cccc(Cl)c2)cn1
The “hERG current change (%, negative = inhibition) at 1uM” value of the first is lower: 5.42% for the first, 10% for the second.

Compared with `FC(F)(F)c1cc(-c2cccs2)nc2nc(N3CCOCC3)sc12`, `O=C1c2ccccc2C(=O)N1Cc1nc(-c2ccncc2)no1` is lower in “hERG current change (%, negative = inhibition) at 1uM” value: 12.2% for the first, 2.26% for the second.

Compared with `COc1cc(S(=O)(=O)N(Cc2cccnc2)Cc2cccc(OC)c2OC)ccc1-n1cnnn1`, `C/C=C\C(=O)Nc1cccc(C2=NOC3(C2)C[C@@H](C(N)=O)N(C(=O)COc2ccc(Cl)cc2)C3)c1` (stereo partly shown) is higher in “hERG current change (%, negative = inhibition) at 1uM” value: 2.4% for the first, 11% for the second.
